Experimental data published in PubChem BioAssay (NCATS).
Values joined by “and” are separate entries in the source; they are usually repeats but may differ in a detail not shown here. Equal values may be shown once. Some of the results follow. Further columns of the screen follow, without active or inactive calls. The list favours compounds with an active or inconclusive main result. Words in brackets tell the shape of the fitted curve; partial curves, single points and poor fits give uncertain potencies.

Assay: qHTS Assay for Lipid Storage Modulators (AID 1519)
Details: Drosophila S3 cells, BODIPY lipid droplet/cell ratio, laser cytometry, cells loaded with oleic acid
In short: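 Cells seeded at 5,000 per well were treated with compounds over a concentration series and loaded with oleic acid (400 uM, as added). Lipid droplet fluorescence (488 nm excitation, 500-530 nm channel) was read by laser-scanning cytometry and normalized to 20 uM Triacsin C.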

[1] = measured here: cell count channel max response
[2] = measured here: cell number channel AC50
[3] = measured here: lipid (BODIPY) channel AC50
[4] = measured here: lipid channel max response
Tags give direction and shape of the fitted curve.

SMILES | max response [1] | AC50 [2] | AC50 [3] | max response [4]
CN(C)c1ncc2nc(-c3ccc(Cl)cc3)c(=O)n(Cc3cccs3)c2n1 | -0.397% | 3.16 µM [rising, single point] | 3.16 µM [rising, single point] | -3.52%
Fc1cccc(/C=N\N=C/c2cccc(F)c2)c1 | 90.3% | 14.1 µM [rising, partial curve] | 14.1 µM [rising, partial curve] | 121%
COc1ccc2[nH]cc(CCNc3ncnc4ccc(-c5cccc(C#N)c5)cc34)c2c1 | -4.87% | 0.708 µM [rising, full curve] | 0.708 µM [rising, full curve] | 1.97%
O=C(NC1CCN(Cc2ccccc2)CC1)c1ccc(I)cc1 | 104% | 14.1 µM [rising, partial curve] | 12.6 µM [rising, partial curve] | 134%
COc1ccc(Oc2ncc3nc(C)c(=O)n(Cc4ccc(F)cc4)c3n2)cc1 | 18.3% | 0.447 µM [rising, full curve] | 0.447 µM [rising, full curve] | 24.3%
COCC(=O)N1CCC2(CC1)CCN(c1ccc(-c3ccccc3)cc1)CC2 | 13.3% | 0.00501 µM [rising, full curve, poor fit] | 0.398 µM [rising, full curve] | 24.7%
COc1cc2c(cc1OC)C(c1ccc(N)cc1)=NNC(=O)C2 | 107% | 8.91 µM [rising, partial curve, poor fit] | 11.2 µM [rising, partial curve, poor fit] | 144%
CN(Cc1ccco1)c1nc(-c2ccccc2C(F)(F)F)nc2ccccc12 | 37.1% | 3.16 µM [rising, full curve, poor fit] | 2.82 µM [rising, full curve] | 43.1%
COc1cccc(-c2ccc3ncnc(N(C)C)c3c2)c1 | 4.11% | 1.12 µM [rising, partial curve] | 2.24 µM [rising, partial curve] | -5.81%
CN(C)c1ncc2nc(CCc3ccccc3)c(=O)n(CCC#N)c2n1 | 36% | 5.62 µM [rising, full curve, poor fit] | 3.98 µM [rising, full curve, poor fit] | 44.7%
N#Cc1ccccc1-c1ccc2ncnc(NCCN3CCOCC3)c2c1 | 35.5% | 7.94 µM [rising, full curve] | 3.98 µM [rising, full curve, poor fit] | 32.2%
COCCn1c(=O)c(-c2cc(F)cc(F)c2)nc2cnc(Oc3ccccc3)nc21 | 22.2% | 2 µM [rising, full curve, poor fit] | 1.26 µM [rising, full curve, poor fit] | 30.4%
CN(Cc1ccco1)c1cc(-c2ccc3c(c2)OCO3)ncn1 | 17.4% | 3.55 µM [rising, partial curve, poor fit] | 3.16 µM [rising, partial curve, poor fit] | 24%
COc1ccc(Oc2ncc3nc(C)c(=O)n(-c4ccc(OC)cc4)c3n2)cc1 | 19% | 2.51 µM [rising, partial curve] | 1.58 µM [rising, partial curve] | 4.52%
O=C(O)c1cccnc1C(=O)O | 23.1% and 21.8% | 8.91 µM [falling, partial curve] | 17.8 µM [rising, partial curve, poor fit] and 8.91 µM [falling, partial curve] | 31.2% and 22.8%
CCOC(=O)C1=C(C)NC(c2ccccc2)=C(C(=O)OCc2ccc([N+](=O)[O-])cc2)[C@@H]1C#Cc1ccccc1 | 81.9% | 4.47 µM [rising, partial curve] | 10 µM [rising, partial curve, poor fit] | 106%
CCN(CC)C[C@@H]1CCCCN1CC(=O)N1c2ccccc2C(=O)Nc2cccnc21 | 38.7% | 14.1 µM [rising, full curve, poor fit] | 17.8 µM [rising, full curve, poor fit] | 51.7%
COc1ncc2nc(-c3cn(C)c4ccccc34)c(=O)n(C)c2n1 | 33.5% | 2.51 µM [rising, full curve] | 2.51 µM [rising, full curve] | 40.4%
